Paper PMC4807287
No constants are given. Whether binding was seen depends on the method and setting. Binding seen in cells or lysates may run through a third protein. Some entries that bind do so weakly or less than the wild type.

Chains of the proteins cited; added tags and fusions are not shown.
UniProt Q9Y5S8: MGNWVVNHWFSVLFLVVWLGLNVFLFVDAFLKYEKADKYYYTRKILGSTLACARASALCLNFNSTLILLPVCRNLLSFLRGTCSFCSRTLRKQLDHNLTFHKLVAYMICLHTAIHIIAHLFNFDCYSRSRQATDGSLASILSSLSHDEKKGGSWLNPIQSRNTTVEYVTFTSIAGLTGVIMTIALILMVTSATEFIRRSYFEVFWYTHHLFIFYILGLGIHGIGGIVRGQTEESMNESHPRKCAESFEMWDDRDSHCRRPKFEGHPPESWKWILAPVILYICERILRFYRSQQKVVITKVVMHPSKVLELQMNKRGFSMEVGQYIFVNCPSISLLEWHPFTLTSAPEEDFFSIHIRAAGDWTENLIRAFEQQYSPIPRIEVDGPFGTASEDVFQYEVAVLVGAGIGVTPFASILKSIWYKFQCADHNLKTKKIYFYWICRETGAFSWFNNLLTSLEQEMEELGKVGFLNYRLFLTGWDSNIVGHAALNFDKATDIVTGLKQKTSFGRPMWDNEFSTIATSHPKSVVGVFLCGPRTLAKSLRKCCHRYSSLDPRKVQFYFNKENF

T1: Calnexin, endogenous in HEK293 cells (human (endogenous in HEK293)) (UniProt P27824)
T1 sequence: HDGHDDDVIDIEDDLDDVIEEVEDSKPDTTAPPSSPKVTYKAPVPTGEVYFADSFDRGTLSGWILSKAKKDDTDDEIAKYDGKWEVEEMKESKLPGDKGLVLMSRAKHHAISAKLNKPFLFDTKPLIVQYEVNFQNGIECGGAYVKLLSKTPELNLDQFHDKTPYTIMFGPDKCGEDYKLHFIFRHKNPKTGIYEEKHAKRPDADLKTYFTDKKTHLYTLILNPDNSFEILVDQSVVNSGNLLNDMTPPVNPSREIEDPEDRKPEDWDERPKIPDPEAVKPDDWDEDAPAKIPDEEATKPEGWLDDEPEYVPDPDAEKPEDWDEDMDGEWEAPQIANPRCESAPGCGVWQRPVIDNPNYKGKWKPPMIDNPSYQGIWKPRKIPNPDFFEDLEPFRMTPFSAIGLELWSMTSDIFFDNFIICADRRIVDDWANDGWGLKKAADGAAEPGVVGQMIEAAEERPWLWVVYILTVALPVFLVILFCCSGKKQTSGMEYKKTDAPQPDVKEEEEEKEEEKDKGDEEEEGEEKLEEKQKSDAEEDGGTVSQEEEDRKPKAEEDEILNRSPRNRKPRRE

T2: NOX4, endogenous in murine podocytes and mouse embryonic fibroblasts (mouse (endogenous in podocytes and MEFs)) (UniProt Q9JHI8)
T2 sequence: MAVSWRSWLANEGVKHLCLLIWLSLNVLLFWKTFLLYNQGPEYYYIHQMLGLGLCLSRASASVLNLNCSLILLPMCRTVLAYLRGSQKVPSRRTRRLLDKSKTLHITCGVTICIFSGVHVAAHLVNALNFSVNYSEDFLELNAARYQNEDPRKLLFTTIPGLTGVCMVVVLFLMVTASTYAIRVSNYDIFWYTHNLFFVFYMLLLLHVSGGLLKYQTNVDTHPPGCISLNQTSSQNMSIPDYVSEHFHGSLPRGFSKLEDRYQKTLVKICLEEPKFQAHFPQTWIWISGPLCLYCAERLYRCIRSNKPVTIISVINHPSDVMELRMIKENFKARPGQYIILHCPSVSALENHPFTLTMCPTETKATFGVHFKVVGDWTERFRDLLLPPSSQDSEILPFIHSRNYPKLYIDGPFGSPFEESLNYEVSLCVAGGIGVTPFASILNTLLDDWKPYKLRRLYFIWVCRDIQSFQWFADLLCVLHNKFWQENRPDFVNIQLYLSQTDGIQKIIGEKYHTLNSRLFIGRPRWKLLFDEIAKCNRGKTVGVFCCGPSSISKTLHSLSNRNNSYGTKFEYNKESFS


Tests used:
[1] = molecular target: T1, Calnexin, endogenous in HEK293 cells (human (endogenous in HEK293)); test: co-IP; HEK293 cells transiently transfected with human NOX1, NOX2, NOX4 or NOX5; IP with anti-CANX; Western blot for the NOX proteins
[2] = molecular target: T1, Calnexin, endogenous in HEK293 cells (human (endogenous in HEK293)); test: co-IP; IP with anti-CANX or anti-HSPA5 antibody and Protein A/G-Sepharose from HEK293 (Ctl) and stably NOX4-overexpressing HEK293 cells lysed in Tris/HCl pH 7.5 with 1% Triton or digitonin; Western blot for NOX4
[3] = molecular target: T2, NOX4, endogenous in murine podocytes and mouse embryonic fibroblasts (mouse (endogenous in podocytes and MEFs)); test: proximity ligation; Duolink PLA on formaldehyde-fixed, Triton-permeabilised cells with rabbit monoclonal anti-NOX4 and anti-CANX (sc-6465) antibodies; controls were the CANX antibody blocking peptide, omission of the NOX4 antibody, and Nox4-/- or Canx-/- cells; done in NOX4-HEK293 cells, mouse podocytes and MEFs

Row | binding [1] | binding [2] | binding [3] | Molecule
1 | no binding | – | – | NOX1 (human), transiently overexpressed in HEK293 cells (from UniProt Q9Y5S8 1-564) (enzyme)
2 | no binding | – | – | NOX2 (human), transiently overexpressed in HEK293 cells (enzyme, UniProt P04839 1-570) MGNWAVNEGLSIFVILVWLGLNVFLFVWYYRVYDIPPKFFYTRKLLGSALALARAPAACLNFNCMLILLPVCRNLLSFLRGSSACCSTRVRRQLDRNLTFHKMVAWMIALHSAIHTIAHLFNVEWCVNARVNNSDPYSVALSELGDRQNESYLNFARKRIKNPEGGLYLAVTLLAGITGVVITLCLILIITSSTKTIRRSYFEVFWYTHHLFVIFFIGLAIHGAERIVRGQTAESLAVHNITVCEQKISEWGKIKECPIPQFAGNPPMTWKWIVGPMFLYLCERLVRFWRSQQKVVITKVVTHPFKTIELQMKKKGFKMEVGQYIFVKCPKVSKLEWHPFTLTSAPEEDFFSIHIRIVGDWTEGLFNACGCDKQEFQDAWKLPKIAVDGPFGTASEDVFSYEVVMLVGAGIGVTPFASILKSVWYKYCNNATNLKLKKIYFYWLCRDTHAFEWFADLLQLLESQMQERNNAGFLSYNIYLTGWDESQANHFAVHHDEEKDVITGLKQKTLYGRPNWDNEFKTIASQHPNTRIGVFLCGPEALAETLSKQSISNSESGPRGVHFIFNKENF
3 | binds | binds | – | NADPH oxidase 4 (human NOX4), overexpressed in HEK293 cells (enzyme, UniProt Q9NPH5 1-578) MAVSWRSWLANEGVKHLCLFIWLSMNVLLFWKTFLLYNQGPEYHYLHQMLGLGLCLSRASASVLNLNCSLILLPMCRTLLAYLRGSQKVPSRRTRRLLDKSRTFHITCGVTICIFSGVHVAAHLVNALNFSVNYSEDFVELNAARYRDEDPRKLLFTTVPGLTGVCMVVVLFLMITASTYAIRVSNYDIFWYTHNLFFVFYMLLTLHVSGGLLKYQTNLDTHPPGCISLNRTSSQNISLPEYFSEHFHEPFPEGFSKPAEFTQHKFVKICMEEPRFQANFPQTWLWISGPLCLYCAERLYRYIRSNKPVTIISVMSHPSDVMEIRMVKENFKARPGQYITLHCPSVSALENHPFTLTMCPTETKATFGVHLKIVGDWTERFRDLLLPPSSQDSEILPFIQSRNYPKLYIDGPFGSPFEESLNYEVSLCVAGGIGVTPFASILNTLLDDWKPYKLRRLYFIWVCRDIQSFRWFADLLCMLHNKFWQENRPDYVNIQLYLSQTDGIQKIIGEKYHALNSRLFIGRPRWKLLFDEIAKYNRGKTVGVFCCGPNSLSKTLHKLSNQNNSYGTRFEYNKESFS
4 | no binding | – | – | NOX5 (human), transiently overexpressed in HEK293 cells (enzyme, UniProt Q96PH1 1-765) MNTSGDPAQTGPEGCRGTMSAEEDARWLRWVTQQFKTIAGEDGEISLQEFKAALHVKESFFAERFFALFDSDRSGTITLQELQEALTLLIHGSPMDKLKFLFQVYDIDVCARQGASAGTEWGAGAGPHWASSPLGTGSGSIDPDELRTVLQSCLRESAISLPDEKLDQLTLALFESADADGNGAITFEELRDELQRFPGVMENLTISAAHWLTAPAPRPRPRRPRQLTRAYWHNHRSQLFCLATYAGLHVLLFGLAASAHRDLGASVMVAKGCGQCLNFDCSFIAVLMLRRCLTWLRATWLAQVLPLDQNIQFHQLMGYVVVGLSLVHTVAHTVNFVLQAQAEASPFQFWELLLTTRPGIGWVHGSASPTGVALLLLLLLMFICSSSCIRRSGHFEVFYWTHLSYLLVWLLLIFHGPNFWKWLLVPGILFFLEKAIGLAVSRMAAVCIMEVNLLPSKVTHLLIKRPPFFHYRPGDYLYLNIPTIARYEWHPFTISSAPEQKDTIWLHIRSQGQWTNRLYESFKASDPLGRGSKRLSRSVTMRKSQRSSKGSEILLEKHKFCNIKCYIDGPYGTPTRRIFASEHAVLIGAGIGITPFASILQSIMYRHQKRKHTCPSCQHSWIEGVQDNMKLHKVDFIWINRDQRSFEWFVSLLTKLEMDQAEEAQYGRFLELHMYMTSALGKNDMKAIGLQMALDLLANKEKKDSITGLQTRTQPGRPDWSKVFQKVAAEKKGKVQVFFCGSPALAKVLKGHCEKFGFRFFQENF
5 | – | – | binds | Calnexin, endogenous in murine podocytes and mouse embryonic fibroblasts (protein, UniProt P35564 21-591) HDGHDDDAIDIEDDLDDVIEEVEDSKSKSDASTPPSPKVTYKAPVPTGEVYFADSFDRGSLSGWILSKAKKDDTDDEIAKYDGKWEVDEMKETKLPGDKGLVLMSRAKHHAISAKLNKPFLFDTKPLIVQYEVNFQNGIECGGAYVKLLSKTAELSLDQFHDKTPYTIMFGPDKCGEDYKLHFIFRHKNPKTGVYEEKHAKRPDADLKTYFTDKKTHLYTLILNPDNSFEILVDQSVVNSGNLLNDMTPPVNPSREIEDPEDRKPEDWDERPKIADPDAVKPDDWDEDAPSKIPDEEATKPEGWLDDEPEYIPDPDAEKPEDWDEDMDGEWEAPQIANPKCESAPGCGVWQRPMIDNPNYKGKWKPPMIDNPNYQGIWKPRKIPNPDFFEDLEPFKMTPFSAIGLELWSMTSDIFFDNFIISGDRRVVDDWANDGWGLKKAADGAAEPGVVLQMLEAAEERPWLWVVYILTVALPVFLVILFCCSGKKQSNAMEYKKTDAPQPDVKDEEGKEEEKNKRDEEEEEEKLEEKQKSDAEEDGVTGSQDEEDSKPKAEEDEILNRSPRNRKPRRE
